# Results as given in the supplement of paper PMC8728848.
# This is one part of the list.
# B1: CPA (Cicer arietinum) (protein)
# chain: MAFSYLNLVLVTLTTLFFLQTTKVKSQKSVSFHITNFTISRPSITLQGTAEFLPNVLLLNDIEHPVFVVGRALYSKPITLWNNKTGKVASFVTSFTFDVQDLKKTVPGHGLVFFLAPSGSEIPFSSDGGNLGVVDGKNAFNRFVGVEFDNFVNSWDPKYSHVGINVNSLISTKTVKWNRVSGELVKVSIVYDSVSTTLTVIVTYKNGQISILSQLVDLKAVLPDTVNIGFSASTTLVSPRQLHNIHSWSFTSTFET
# Columns and labels:
# Assay in all cases: glycan array binding signal (z-score within array); higher = stronger binding
# Conditions in all cases: glycan notation: IUPAC condensed, linker removed
# [1] = target: GlcNAc(b1-2)Man(a1-3)[GlcNAc(b1-2)Man(a1-6)]Man(b1-4)GlcNAc(b1-4)GlcNAc
# In short: (§1)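 Columns mapping to the same glycan were averaged after glycan names were converted to IUPAC-condensed notation. The data come from 3228 arrays in the Consortium for Functional Glycomics database, limited to those with an available protein sequence. Binding is reported as a within-array Z-score averaged across arrays of one protein sequence and across linkers.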
# [2] = target: GlcNAc(b1-2)Man(a1-3)[GlcNAc(b1-2)Man(a1-6)]Man(b1-4)GlcNAc(b1-4)[Fuc(a1-6)]GlcNAc
# In short: as §1
# [3] = target: GlcNAc(b1-2)Man(a1-3)[GlcNAc(b1-4)][GlcNAc(b1-2)Man(a1-6)]Man(b1-4)GlcNAc(b1-4)GlcNAc
# In short: as §1
# [4] = target: GlcNAc(b1-2)Man(a1-3)[GlcNAc(b1-4)][GlcNAc(b1-2)Man(a1-6)]Man(b1-4)GlcNAc(b1-4)[Fuc(a1-6)]GlcNAc
# In short: as §1
# [5] = target: GlcNAc(b1-2)[GlcNAc(b1-4)]Man(a1-3)[GlcNAc(b1-2)Man(a1-6)]Man(b1-4)GlcNAc(b1-4)GlcNAc
# In short: as §1
# [6] = target: GlcNAc(b1-2)[GlcNAc(b1-4)]Man(a1-3)[GlcNAc(b1-4)][GlcNAc(b1-2)Man(a1-6)]Man(b1-4)GlcNAc(b1-4)GlcNAc
# In short: as §1
# [7] = target: GlcNAc(b1-2)[GlcNAc(b1-4)]Man(a1-3)[GlcNAc(b1-4)][GlcNAc(b1-2)[GlcNAc(b1-6)]Man(a1-6)]Man(b1-4)GlcNAc(b1-4)GlcNAc
# In short: as §1
# [8] = target: GlcNAc(b1-2)[GlcNAc(b1-4)]Man(a1-3)[GlcNAc(b1-4)][GlcNAc(b1-2)[GlcNAc(b1-6)]Man(a1-6)]Man(b1-4)GlcNAc(b1-4)[Fuc(a1-6)]GlcNAc
# In short: as §1
# [9] = target: GlcNAc(b1-2)[GlcNAc(b1-6)]Man(a1-6)[GlcNAc(b1-2)Man(a1-3)]Man(b1-4)GlcNAc(b1-4)GlcNAc
# In short: as §1
# [10] = target: GlcNAc(b1-2)[GlcNAc(b1-6)]Man(a1-6)[GlcNAc(b1-2)Man(a1-3)]Man(b1-4)GlcNAc(b1-4)[Fuc(a1-6)]GlcNAc
# In short: as §1
# [11] = target: GlcNAc(b1-2)[GlcNAc(b1-6)]Man(a1-6)[GlcNAc(b1-4)][GlcNAc(b1-2)Man(a1-3)]Man(b1-4)GlcNAc(b1-4)GlcNAc
# In short: as §1
# GlcNAc(b1-3)Fuc = target: GlcNAc(b1-3)Fuc
# In short: as §1
# GlcNAc(b1-3)Gal = target: GlcNAc(b1-3)Gal
# In short: as §1
# [12] = target: GlcNAc(b1-3)Gal(b1-3)GalNAc
# In short: as §1
# GlcNAc(b1-3)Gal(b1-4)Glc = target: GlcNAc(b1-3)Gal(b1-4)Glc
# In short: as §1
# [13] = target: GlcNAc(b1-3)Gal(b1-4)GlcNAc
# In short: as §1
# [14] = target: GlcNAc(b1-3)Gal(b1-4)GlcNAc(b1-2)Man(a1-3)[GlcNAc(b1-3)Gal(b1-4)GlcNAc(b1-2)Man(a1-6)]Man(b1-4)GlcNAc(b1-4)GlcNAc
# In short: as §1
# [15] = target: GlcNAc(b1-3)Gal(b1-4)GlcNAc(b1-2)Man(a1-3)[GlcNAc(b1-3)Gal(b1-4)GlcNAc(b1-2)Man(a1-6)]Man(b1-4)GlcNAc(b1-4)[Fuc(a1-6)]GlcNAc
# In short: as §1
# [16] = target: GlcNAc(b1-3)Gal(b1-4)GlcNAc(b1-2)[GlcNAc(b1-3)Gal(b1-4)GlcNAc(b1-6)]Man(a1-6)[GlcNAc(b1-3)Gal(b1-4)GlcNAc(b1-2)Man(a1-3)]Man(b1-4)GlcNAc(b1-4)GlcNAc
# In short: as §1
# [17] = target: GlcNAc(b1-3)Gal(b1-4)GlcNAc(b1-3)Gal(b1-4)GlcNAc
# In short: as §1
# [18] = target: GlcNAc(b1-3)Gal(b1-4)GlcNAc(b1-3)Gal(b1-4)GlcNAc(b1-2)Man(a1-3)[GlcNAc(b1-3)Gal(b1-4)GlcNAc(b1-3)Gal(b1-4)GlcNAc(b1-2)Man(a1-6)]Man(b1-4)GlcNAc(b1-4)GlcNAc
# In short: as §1
# [19] = target: GlcNAc(b1-3)Gal(b1-4)GlcNAc(b1-3)Gal(b1-4)GlcNAc(b1-2)Man(a1-3)[GlcNAc(b1-3)Gal(b1-4)GlcNAc(b1-3)Gal(b1-4)GlcNAc(b1-2)Man(a1-6)]Man(b1-4)GlcNAc(b1-4)[Fuc(a1-6)]GlcNAc
# In short: as §1
# [20] = target: GlcNAc(b1-3)Gal(b1-4)GlcNAc(b1-3)Gal(b1-4)GlcNAc(b1-2)[GlcNAc(b1-3)Gal(b1-4)GlcNAc(b1-3)Gal(b1-4)GlcNAc(b1-6)]Man(a1-6)[GlcNAc(b1-3)Gal(b1-4)GlcNAc(b1-3)Gal(b1-4)GlcNAc(b1-2)Man(a1-3)]Man(b1-4)GlcNAc(b1-4)[Fuc(a1-6)]GlcNAc
# In short: as §1
# [21] = target: GlcNAc(b1-3)Gal(b1-4)GlcNAc(b1-3)Gal(b1-4)GlcNAc(b1-3)Gal(b1-4)GlcNAc(b1-2)Man(a1-3)[GlcNAc(b1-3)Gal(b1-4)GlcNAc(b1-3)Gal(b1-4)GlcNAc(b1-3)Gal(b1-4)GlcNAc(b1-2)Man(a1-6)]Man(b1-4)GlcNAc(b1-4)GlcNAc
# In short: as §1
# [22] = target: GlcNAc(b1-3)Gal(b1-4)GlcNAc(b1-3)Gal(b1-4)GlcNAc(b1-3)Gal(b1-4)GlcNAc(b1-2)Man(a1-3)[GlcNAc(b1-3)Gal(b1-4)GlcNAc(b1-3)Gal(b1-4)GlcNAc(b1-3)Gal(b1-4)GlcNAc(b1-2)Man(a1-6)]Man(b1-4)GlcNAc(b1-4)[Fuc(a1-6)]GlcNAc
# In short: as §1
# [23] = target: GlcNAc(b1-3)Gal(b1-4)GlcNAc(b1-3)Gal(b1-4)GlcNAc(b1-3)Gal(b1-4)GlcNAc(b1-2)[GlcNAc(b1-3)Gal(b1-4)GlcNAc(b1-3)Gal(b1-4)GlcNAc(b1-3)Gal(b1-4)GlcNAc(b1-6)]Man(a1-6)[GlcNAc(b1-3)Gal(b1-4)GlcNAc(b1-3)Gal(b1-4)GlcNAc(b1-3)Gal(b1-4)GlcNAc(b1-2)Man(a1-3)]Man(b1-4)GlcNAc(b1-4)[Fuc(a1-6)]GlcNAc
# In short: as §1
# [24] = target: GlcNAc(b1-3)Gal(b1-4)GlcNAc(b1-3)Gal(b1-4)GlcNAc(b1-3)Gal(b1-4)GlcNAc(b1-3)Gal(b1-4)GlcNAc(b1-2)Man(a1-3)[GlcNAc(b1-3)Gal(b1-4)GlcNAc(b1-3)Gal(b1-4)GlcNAc(b1-3)Gal(b1-4)GlcNAc(b1-3)Gal(b1-4)GlcNAc(b1-2)Man(a1-6)]Man(b1-4)GlcNAc(b1-4)GlcNAc
# In short: as §1
# [25] = target: GlcNAc(b1-3)Gal(b1-4)GlcNAc(b1-3)Gal(b1-4)GlcNAc(b1-3)Gal(b1-4)GlcNAc(b1-3)Gal(b1-4)GlcNAc(b1-2)Man(a1-3)[GlcNAc(b1-3)Gal(b1-4)GlcNAc(b1-3)Gal(b1-4)GlcNAc(b1-3)Gal(b1-4)GlcNAc(b1-3)Gal(b1-4)GlcNAc(b1-2)Man(a1-6)]Man(b1-4)GlcNAc(b1-4)[Fuc(a1-6)]GlcNAc
# In short: as §1
# [26] = target: GlcNAc(b1-3)Gal(b1-4)GlcNAc(b1-3)Gal(b1-4)GlcNAc(b1-3)Gal(b1-4)GlcNAc(b1-3)Gal(b1-4)GlcNAc(b1-2)[GlcNAc(b1-3)Gal(b1-4)GlcNAc(b1-3)Gal(b1-4)GlcNAc(b1-3)Gal(b1-4)GlcNAc(b1-3)Gal(b1-4)GlcNAc(b1-6)]Man(a1-6)[GlcNAc(b1-3)Gal(b1-4)GlcNAc(b1-3)Gal(b1-4)GlcNAc(b1-3)Gal(b1-4)GlcNAc(b1-3)Gal(b1-4)GlcNAc(b1-2)Man(a1-3)]Man(b1-4)GlcNAc(b1-4)[Fuc(a1-6)]GlcNAc
# In short: as §1
# [27] = target: GlcNAc(b1-3)Gal(b1-4)GlcNAc(b1-3)Gal(b1-4)GlcNAc(b1-3)GalNAc
# In short: as §1
# [28] = target: GlcNAc(b1-3)Gal(b1-4)GlcNAc(b1-3)GalNAc
# In short: as §1
# [29] = target: GlcNAc(b1-3)Gal(b1-4)GlcNAc(b1-3)[GlcNAc(b1-3)Gal(b1-4)GlcNAc(b1-3)]GalNAc
# In short: as §1
# [30] = target: GlcNAc(b1-3)Gal(b1-4)GlcNAc(b1-6)[Gal(b1-3)]GalNAc
# In short: as §1
# [31] = target: GlcNAc(b1-3)Gal(b1-4)GlcNAc(b1-6)[GlcNAc(b1-3)Gal(b1-3)]GalNAc
# In short: as §1
# [32] = target: GlcNAc(b1-3)Gal(b1-4)GlcNAc(b1-6)[GlcNAc(b1-3)]Gal(b1-4)GlcNAc
# In short: as §1
# GlcNAc(b1-3)GalNAc = target: GlcNAc(b1-3)GalNAc
# In short: as §1
# GlcNAc(b1-3)Man = target: GlcNAc(b1-3)Man
# In short: as §1
binder,measurement,setting,value
B1,glycan array binding signal (z-score),[1],-0.337
same,glycan array binding signal (z-score),[2],-0.414
same,glycan array binding signal (z-score),[3],0.181
same,glycan array binding signal (z-score),[4],0.163
same,glycan array binding signal (z-score),[5],-0.456
same,glycan array binding signal (z-score),[6],-0.545
same,glycan array binding signal (z-score),[7],-0.746
same,glycan array binding signal (z-score),[8],-0.774
same,glycan array binding signal (z-score),[9],-0.319
same,glycan array binding signal (z-score),[10],-0.481
same,glycan array binding signal (z-score),[11],-0.162
same,glycan array binding signal (z-score),GlcNAc(b1-3)Fuc,-0.304
same,glycan array binding signal (z-score),GlcNAc(b1-3)Gal,-0.386
same,glycan array binding signal (z-score),[12],-0.568
same,glycan array binding signal (z-score),GlcNAc(b1-3)Gal(b1-4)Glc,-0.562
same,glycan array binding signal (z-score),[13],-0.24
same,glycan array binding signal (z-score),[14],-0.355
same,glycan array binding signal (z-score),[15],0.428
same,glycan array binding signal (z-score),[16],1.13
same,glycan array binding signal (z-score),[17],0.393
same,glycan array binding signal (z-score),[18],1.58
same,glycan array binding signal (z-score),[19],-0.054
same,glycan array binding signal (z-score),[20],1.27
same,glycan array binding signal (z-score),[21],2.39
same,glycan array binding signal (z-score),[22],1.3
same,glycan array binding signal (z-score),[23],1.44
same,glycan array binding signal (z-score),[24],1.11
same,glycan array binding signal (z-score),[25],0.525
same,glycan array binding signal (z-score),[26],0.812
same,glycan array binding signal (z-score),[27],-0.322
same,glycan array binding signal (z-score),[28],-0.569
same,glycan array binding signal (z-score),[29],-0.654
same,glycan array binding signal (z-score),[30],-0.405
same,glycan array binding signal (z-score),[31],-0.443
same,glycan array binding signal (z-score),[32],-0.335
same,glycan array binding signal (z-score),GlcNAc(b1-3)GalNAc,-0.373
same,glycan array binding signal (z-score),GlcNAc(b1-3)Man,-0.558
